# Measured values reported in the supplement of paper PMC9446081.
# Among all 39,000 compounds or so, about 220 (0.56%) showed activity. The list shows a part of the results.
# Test system: Escherichia coli K-12 BW25113
# Assay: relative growth (OD600 normalised to plate interquartile mean) (fraction); higher = less growth inhibition, active = 0.2 or less
# Details: 50 µM; LB; incubation time: overnight (16-24 h)
# 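Also: static incubation at 37 °C against the wild-type strain, values averaged over two biological replicates.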
row,Compound,relative growth
1,NCCn1cccn1,inactive: 1.01
2,COC(=O)[C@@H](NC(=O)c1cccc(NC=O)c1O)[C@@H](C)O,inactive: 1.04
3,C[C@@H](C(=O)N(C)C[C@H]1OCc2ccccc2-c2c(n(C)c3ccccc23)C(=O)N([C@@H](C)CO)C[C@@H]1C)c1ccccc1,inactive: 0.98
4,C[C@@H]1CCCCO[C@H](CN(C)S(=O)(=O)c2cn(C)cn2)[C@@H](C)CN([C@H](C)CO)C(=O)c2cc(NS(=O)(=O)c3cccs3)ccc2O1,inactive: 1.02
5,COCC#Cc1cnc2c(c1)C(=O)N([C@@H](C)CO)C[C@@H](C)[C@@H](CN(C)C(=O)Nc1ccccc1OC)O2,inactive: 0.997
6,Nc1cc(=O)nc(C(F)(F)F)[nH]1,inactive: 0.999
7,C[C@@H]1CNC[C@H](C)N1,inactive: 0.99
8,COC(=O)C1(C)CCCC2(C)c3ccc(O)c(C(C)C)c3CCC12 (configuration not stated),inactive: 0.951
9,Cc1ccc(S(=O)(=O)N2C[C@H](O)COC[C@H]3O[C@@H](CC(=O)N[C@@H]4CCN(Cc5ccccc5)C4)CC[C@@H]32)cc1,inactive: 0.997
10,COc1ccc(S(=O)(=O)N(C)C[C@@H]2Oc3c(NC(=O)C4CCOCC4)cccc3C(=O)N([C@H](C)CO)C[C@H]2C)cc1,inactive: 1.03
11,O=c1nc(Nc2ccccc2)[nH]c(=O)[nH]1,inactive: 0.961
12,Cc1ccc(-c2ccc3c(c2)O[C@H](CN(C)C(=O)NC(C)C)[C@H](C)CN([C@@H](C)CO)S3(=O)=O)cc1,inactive: 1.01
13,C[C@@H]1CN([C@@H](C)CO)C(=O)c2cc(NC(=O)CCN3CCOCC3)ccc2O[C@H]1CN(C)C(=O)NC1CCCCC1,inactive: 0.974
14,Cn1cnc(S(=O)(=O)N2C[C@@H](O)COC[C@@H]3O[C@H](CC(=O)NC4Cc5ccccc5C4)CC[C@H]32)c1,inactive: 0.996
15,Cc1ccc(S(=O)(=O)Nc2ccc3c(c2)C(=O)N([C@@H](C)CO)C[C@H](C)[C@@H](CN(C)Cc2ccc(Cl)c(Cl)c2)OCCCC[C@@H](C)O3)cc1,inactive: 0.964
16,C[C@H](CO)N1C[C@H](C)[C@H](CN(C)Cc2ccc(Cl)c(Cl)c2)Oc2c(NC(=O)Nc3ccc(F)cc3)cccc2C1=O,inactive: 1.02
17,Cc1nsc(C(=O)NC[C@H]2CCCO2)n1,inactive: 1.02
18,C[C@@H]1CN([C@H](C)CO)C(=O)c2c(c3ccccc3n2C)-c2ccccc2CO[C@@H]1CN(C)Cc1ccc(F)cc1,inactive: 0.962
19,COc1ccc(S(=O)(=O)N(C)C[C@H]2Oc3ccc(NC(=O)Nc4c(C)noc4C)cc3C(=O)N([C@H](C)CO)C[C@@H]2C)cc1,inactive: 0.984
20,O=C(C[C@H]1CC[C@@H]2[C@H](COC[C@@H](O)CN2S(=O)(=O)c2ccc(Cl)cc2)O1)N[C@H]1CCN(Cc2ccccc2)C1,inactive: 1
21,C[C@H]1CN([C@@H](C)CO)C(=O)CCCn2nncc2CO[C@@H]1CN(C)C(=O)Nc1cccc(C(F)(F)F)c1,inactive: 0.979

row,Compound,relative growth
1,O=C(C[C@@H]1C[C@@H]2c3cc(NC(=O)Cc4ccncc4)ccc3O[C@@H]2[C@H](CO)O1)NCc1cc(F)ccc1F,inactive: 1.01
2,O=C(CCCCCNC(=O)OCCCCO[C@@H]1C[C@H](c2ccc(Br)cc2)C=C(C(=O)N2CCN(Cc3ccccc3)CC2)O1)NO,inactive: 1
3,O=C(NO)c1cccc(C(=O)N/N=C/[C@H](O)[C@@H](O)[C@@H](O)[C@H](O)CO)c1,inactive: 0.995
4,Cc1ccc(S(=O)(=O)N[C@@H](Cc2ccccc2)C(=O)NCCn2cc(-c3ccccc3N)nn2)cc1,inactive: 0.998
5,C[C@@H]1CN([C@H](C)CO)C(=O)c2cc(NC(=O)Nc3ccc(C(F)(F)F)cc3)ccc2O[C@@H](C)CCCCO[C@@H]1CN(C)C(=O)Cc1ccccc1,inactive: 0.997
6,C[C@@H]1CN([C@H](C)CO)C(=O)Cc2cc(NS(=O)(=O)c3ccc(Cl)cc3)ccc2O[C@@H]1CN(C)Cc1ccc(C(=O)Nc2ccccc2N)cc1,inactive: 1.02
7,C[C@H](CO)N1C[C@H](C)[C@H](CN(C)C(=O)Cc2ccccc2)OCCCC[C@H](C)Oc2ccc(NC(=O)Nc3ccc(F)cc3)cc2C1=O,inactive: 1
8,CC1(C)NC(=O)N(c2ccc([N+](=O)[O-])c(C(F)(F)F)c2)C1=O,inactive: 1.18
9,O=C(C[C@H]1CC[C@@H]2[C@H](COC[C@H](O)CN2S(=O)(=O)c2cccc(Cl)c2)O1)N1CCOCC1,inactive: 1.05
10,C[C@H](CO)N1C[C@H](C)[C@H](CN(C)Cc2ccncc2)OCCCC[C@H](C)Oc2ccc(NC(=O)Nc3ccccc3)cc2C1=O,inactive: 0.97
11,CCCCCCc1ccc(O)cc1O,inactive: 0.473
12,C[C@H]1CN([C@@H](C)CO)C(=O)c2cc(NC(=O)c3ccncc3)ccc2O[C@@H]1CN(C)Cc1ccc2c(c1)OCO2,inactive: 0.988
13,C[C@@H]1CN([C@H](C)CO)S(=O)(=O)c2ccc(C3=CCCC3)cc2O[C@@H]1CN(C)C(=O)Cc1ccncc1,inactive: 1
14,COc1ccc(S(=O)(=O)Nc2ccc3c(c2)C(=O)N([C@@H](C)CO)C[C@H](C)[C@H](CN(C)Cc2ccc(C(=O)O)cc2)OCCCC[C@H](C)O3)cc1,inactive: 1
15,O=C(C[C@@H]1C[C@@H]2c3cc(NS(=O)(=O)c4ccc(F)cc4)ccc3O[C@@H]2[C@H](CO)O1)N1CCCCC1,inactive: 1.02
16,C[C@@H](N)c1ccc(F)cc1F,inactive: 1.04
17,COc1ccc(NC(=O)N(C)C[C@@H]2Oc3ccc(NC(=O)Cn4cnnn4)cc3C(=O)N([C@H](C)CO)C[C@@H]2C)cc1,inactive: 0.996
18,OCCC1CCOCC1,inactive: 1.06
19,CC(C)(C)[S@](=O)N1Cc2cc(C(=O)N3CCCCC3)nc(-c3cccc(C4=CCCC4)c3)c2[C@@H]1CCO,inactive: 1.03
20,C[C@@H]1CCCCO[C@@H](CN(C)Cc2ccc(C(F)(F)F)cc2)[C@H](C)CN([C@H](C)CO)C(=O)c2cc(NC(=O)NC3CCCCC3)ccc2O1,inactive: 0.967
21,O=C(CN1CCOCC1)NCC[C@H]1CC[C@H](NC(=O)c2ccccc2F)[C@H](CO)O1,inactive: 0.985
